# Source: PubChem BioAssay (Tox21)
# Inconclusive means that the source gave no clear call. Such entries were picked first, then a sample of the others. For some of these results: Where the call is inconclusive, the potency comes from a doubtful curve fit. A structure can be active in one record and inactive in another. Calls of active or inactive are those of the source. Unless noted, the call rests on the fitted dose curve; in most records, active means well fitted curve in the direction sought with a large enough effect in the repeat runs; inconclusive means weak or mixed curves; inactive means no such curve, though single readings can be large; an effect the other way counts as inactive or inconclusive.
# Columns and labels:
# [1] = qHTS assay to identify small molecule agonists of the retinoic acid receptor (RAR) signaling pathway (AID 1159553); conditions: C3RL4 RARE luciferase reporter, agonist, 6 h; activation: at 73.3 µM (top of the series) unless noted; further: potency means the concentration at half of the fitted maximal effect
# In short: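 Luminescence was measured 30 min after luciferase reagent addition at room temperature. Before that, C3RL4 reporter cells (1,000 per well, plated overnight) were treated with compound for 6 hr at 37 C and 5% CO2.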
# [2] = qHTS RealTime-Glo MT Cell Viability Assay in HEK293 cells - 40 hour (AID 1224874); conditions: RealTime-Glo luminescence; max response: stronger effect = lower value; further: potency means the concentration at half of the fitted maximal effect; nearly all actives have a fitted effect of over 50% in size
# In short: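 Luminescence, which tracks viable cell number through reduction of the prosubstrate to a NanoLuc substrate, was read over continuous 37 C culture. Cells (600/well) were premixed with reagent and rested 5 h before 23 nL of compound in DMSO was pinned.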
# [3] = qHTS RealTime-Glo MT Cell Viability Assay in HEK293 cells - 24 hour (AID 1224886); further: nearly all actives have a fitted effect of over 50% in size; further: potency means the concentration at half of the fitted maximal effect; on activity change, negative = cytotoxicity: top concentration of the series differs between compounds; on the % scale 0 is the no-effect control and ±100 the full control effect
# In short: (§1)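 Viability tracked continuously by luminescence as live cells reduce a prosubstrate for NanoLuc; HEK293 cells preincubated 5 h, compound-treated at 37 C, and read at 0, 8, 16, 24, 32 and 40 h.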
# [4] = qHTS assay to identify small molecule agonists of the estrogen receptor beta (ER-beta) signaling pathway - cell viability counter screen (AID 1259380); further: potency means the concentration at half of the fitted maximal effect; nearly all actives have a fitted effect of over 30% in size
# In short: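 Cell viability counter screen: CellTiter-Glo luminescence (30 min, room temperature) measured in the same wells as the beta-lactamase readout, after 16 hr compound exposure at 37C of ER-beta-bla HEK293T cells in 2% charcoal-stripped FBS medium.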
# [5] = molecular target: Peroxisome proliferator-activated receptor delta (Homo sapiens) (UniProt Q03181); test: qHTS assay to identify small molecule antagonists of the peroxisome proliferator-activated receptor delta (PPARd) signaling pathway (AID 743215; active means well fitted inhibition curve with a large enough effect in the signal ratio in the repeat runs, not every such curve was filed as active; inconclusive means weak or mixed curves, or effect the other way; inactive means no such curve, though single readings can be large or run the other way; the % refers to the signal ratio;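 further: cells stimulated with agonist L165041 at 300 nM final during compound exposure; on the % scale 0 is the no-effect control and ±100 the full control effect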); conditions: HEK293H PPARd-UAS-bla, beta-lactamase FRET ratio, antagonist, 17 h; ratio activity, negative = inhibition: at 62 µM (top of the series) unless noted
# UniProt Q03181, sequence (Q03181 whole entry, looked up): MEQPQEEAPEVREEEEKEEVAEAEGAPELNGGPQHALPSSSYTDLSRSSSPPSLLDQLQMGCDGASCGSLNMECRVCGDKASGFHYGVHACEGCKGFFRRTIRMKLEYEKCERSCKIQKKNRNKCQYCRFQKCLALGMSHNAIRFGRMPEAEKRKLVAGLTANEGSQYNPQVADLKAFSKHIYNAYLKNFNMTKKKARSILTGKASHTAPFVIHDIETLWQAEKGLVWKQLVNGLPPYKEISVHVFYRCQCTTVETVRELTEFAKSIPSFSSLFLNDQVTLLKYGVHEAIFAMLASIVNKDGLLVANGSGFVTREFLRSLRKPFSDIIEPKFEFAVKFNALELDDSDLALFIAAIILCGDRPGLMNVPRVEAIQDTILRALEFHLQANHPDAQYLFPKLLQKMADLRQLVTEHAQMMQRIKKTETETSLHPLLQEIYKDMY
# In short: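 Agonist L165041 (300 nM final) added with compound to PPARd-bla HEK293H UAS-bla reporter cells; 17 h incubation at 37 C. Read-out: LiveBLAzer FRET substrate, 2 h at room temperature, fluorescence intensity.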
# [6] = molecular target: Nuclear receptor subfamily 1 group I member 2 (Homo sapiens) (UniProt O75469); test: Human pregnane X receptor (PXR) small molecule agonists, qHTS assay (AID 1346982); further: nearly all actives have a fitted effect of over 35% in size; further: potency means the concentration at half of the fitted maximal effect
# UniProt O75469, sequence (O75469 whole entry, looked up): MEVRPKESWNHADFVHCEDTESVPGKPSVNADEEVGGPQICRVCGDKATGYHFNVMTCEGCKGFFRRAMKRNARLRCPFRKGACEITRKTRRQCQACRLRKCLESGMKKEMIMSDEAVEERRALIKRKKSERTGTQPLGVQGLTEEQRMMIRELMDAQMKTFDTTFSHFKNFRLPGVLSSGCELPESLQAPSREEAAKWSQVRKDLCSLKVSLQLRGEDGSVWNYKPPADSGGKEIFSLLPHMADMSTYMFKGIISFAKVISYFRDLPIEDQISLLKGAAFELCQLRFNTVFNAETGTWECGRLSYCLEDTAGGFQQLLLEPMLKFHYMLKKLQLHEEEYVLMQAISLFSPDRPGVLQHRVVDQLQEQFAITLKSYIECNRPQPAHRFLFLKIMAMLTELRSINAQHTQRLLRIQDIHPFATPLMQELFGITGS
# In short: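 Agonist mode: luminescence from ONE-Glo after 24 h compound exposure at 37C in HepG2 cells carrying hPXR-responsive CYP3A4 luciferase, plated in charcoal-stripped serum medium 5 h beforehand.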
# [7] = qHTS assay to identify small molecule antagonists of the peroxisome proliferator-activated receptor gamma (PPARg) signaling pathway - cell viability counter screen (AID 743194); conditions: PPARg-bla HEK293H viability, CellTiter-Glo luminescence, 17 h; Potency: co-treated with 50 nM rosiglitazone unless noted; activity change, negative = cytotoxicity: at 62.6 µM (top of the series), co-treated with 50 nM rosiglitazone unless noted; further: nearly all actives have a fitted effect of over 55% in size; further: potency means the concentration at half of the fitted maximal effect; on activity change, negative = cytotoxicity: on the % scale 0 is the no-effect control and ±100 the full control effect
# In short: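 Cytotoxicity counter screen in PPARg-bla HEK293H cells, same wells as reporter assay. Compounds plus 50 nM rosiglitazone (final) for 17 h at 37 C, then viability read by CellTiter-Glo luminescence.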
# [8] = qHTS RealTime-Glo MT Cell Viability Assay in HEK293 cells - 32 hour (AID 1224868); further: nearly all actives have a fitted effect of over 50% in size; further: potency means the concentration at half of the fitted maximal effect
# In short: as §1
# [9] = qHTS assay to identify small molecule antagonists of the progesterone receptor (PR) signaling pathway - cell viability counter screen (AID 1346798); further: potency means the concentration at half of the fitted maximal effect; nearly all actives have a fitted effect of over 50% in size
# In short: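 CellTiter-Glo luminescence; PR-UAS-bla HEK293T, 3,000 cells/well; compound + R5020, 16 hr, 37C/5% CO2; 30 min RT before read.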
# [10] = molecular target: Thyrotropin receptor (Homo sapiens) (UniProt P16473); test: qHTS assay to identify small molecule agonists of the thyroid stimulating hormone receptor (TSHR) signaling pathway (AID 1224843; calls by dose curve; further: on the % scale 0 is the no-effect control and ±100 the full control effect; nearly all actives have a fitted effect of over 45% in size); conditions: TSHR-HEK293 cells, cAMP HTRF, agonist mode, 30 min; activation: at 92.4 µM (top of the series) unless noted
# UniProt P16473, sequence (P16473 whole entry, looked up): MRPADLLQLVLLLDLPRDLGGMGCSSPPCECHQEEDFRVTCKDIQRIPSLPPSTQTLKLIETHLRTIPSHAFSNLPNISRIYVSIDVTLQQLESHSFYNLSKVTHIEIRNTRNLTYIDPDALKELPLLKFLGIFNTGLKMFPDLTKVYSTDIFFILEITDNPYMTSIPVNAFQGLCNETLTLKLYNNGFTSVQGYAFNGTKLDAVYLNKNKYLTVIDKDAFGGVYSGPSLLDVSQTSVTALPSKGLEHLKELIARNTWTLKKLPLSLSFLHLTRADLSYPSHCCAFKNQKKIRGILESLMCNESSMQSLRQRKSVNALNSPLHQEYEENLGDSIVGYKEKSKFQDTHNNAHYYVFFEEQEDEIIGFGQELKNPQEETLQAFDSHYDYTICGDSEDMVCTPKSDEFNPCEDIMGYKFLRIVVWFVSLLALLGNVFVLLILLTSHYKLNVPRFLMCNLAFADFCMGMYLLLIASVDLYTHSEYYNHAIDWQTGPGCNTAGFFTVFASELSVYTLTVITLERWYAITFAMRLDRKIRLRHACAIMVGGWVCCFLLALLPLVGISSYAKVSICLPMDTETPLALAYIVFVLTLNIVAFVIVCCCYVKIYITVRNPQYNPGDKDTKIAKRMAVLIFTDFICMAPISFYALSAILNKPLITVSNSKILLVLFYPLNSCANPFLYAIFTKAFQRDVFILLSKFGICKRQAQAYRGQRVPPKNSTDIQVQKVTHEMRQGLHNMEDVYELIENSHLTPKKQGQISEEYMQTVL
# In short: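 Agonist-mode screen: TSHR HEK293 cells received test chemicals for half an hour at room temperature, then HTRF cAMP detection reagents for one hour prior to fluorescence measurement. Each chemical ran as a 15-concentration series, triplicated.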
# [11] = qHTS RealTime-Glo MT Cell Viability Assay in HEK293 cells - 16 hour (AID 1224872); further: nearly all actives have a fitted effect of over 50% in size; further: potency means the concentration at half of the fitted maximal effect
# In short: as §1
# [12] = qHTS assay to identify small molecule antagonists of the vitamin D receptor (VDR) signaling pathway - cell viability counter screen (AID 743225); conditions: VDR-bla HEK293T viability, CellTiter-Glo luminescence, 16 h; viability change, negative = cytotoxic: at 61 µM (top of the series) unless noted; further: nearly all actives have a fitted effect of over 50% in size; further: potency means the concentration at half of the fitted maximal effect
# In short: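 Same-well multiplex: following 16 h treatment of HEK 293T cells carrying a UAS-driven beta-lactamase reporter with compound and agonist (3 nM final), and a 2 h FRET substrate step, CellTiter-Glo was added and luminescence read after 30 min.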
# [13] = qHTS assay for small molecule agonists of the p53 signaling pathway (AID 651631; calls by dose curve; further: nearly all actives have a fitted effect of over 15% in size; further: potency means the concentration at half of the fitted maximal effect); conditions: HCT-116 p53RE-bla reporter, beta-lactamase FRET ratio, 16 h; activation: at 73.3 µM (top of the series) unless noted
# In short: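 Testing took place in human colorectal HCT-116 cells with stable p53RE-driven beta-lactamase. After 16 h of compound exposure at 37 °C, a FRET substrate was added and fluorescence recorded 2 h later.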
# [14] = qHTS assay to identify small molecule antagonists of the peroxisome proliferator-activated receptor delta (PPARd) signaling pathway - cell viability counter screen (AID 743213); conditions: PPARd-bla HEK293H viability, CellTiter-Glo luminescence, 17 h; viability change, negative = cytotoxic: at 62 µM (top of the series) unless noted; further: nearly all actives have a fitted effect of over 50% in size; further: potency means the concentration at half of the fitted maximal effect
# In short: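 Cytotoxicity counter screen: CellTiter-Glo luminescence read 30 min after addition, in the same wells as the reporter assay. There, PPARd UAS-bla HEK293H cells (3000/well) were treated 17 h at 37 C with compound and 300 nM L165041.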
# [15] = molecular target: Estrogen receptor beta (Homo sapiens) (UniProt Q92731); test: qHTS assay to identify small molecule agonists of the estrogen receptor beta (ER-beta) signaling pathway (AID 1259377; active means well fitted activation curve with a large enough effect in the signal ratio in the repeat runs, not every such curve was filed as active; inconclusive means weak or mixed curves, or effect the other way; the % refers to the signal ratio; further: potency means the concentration at half of the fitted maximal effect); conditions: ER-beta-UAS-bla HEK293T, beta-lactamase FRET ratio, 16 h; activation: at 92.4 µM (top of the series) unless noted
# UniProt Q92731, sequence (Q92731 whole entry, looked up): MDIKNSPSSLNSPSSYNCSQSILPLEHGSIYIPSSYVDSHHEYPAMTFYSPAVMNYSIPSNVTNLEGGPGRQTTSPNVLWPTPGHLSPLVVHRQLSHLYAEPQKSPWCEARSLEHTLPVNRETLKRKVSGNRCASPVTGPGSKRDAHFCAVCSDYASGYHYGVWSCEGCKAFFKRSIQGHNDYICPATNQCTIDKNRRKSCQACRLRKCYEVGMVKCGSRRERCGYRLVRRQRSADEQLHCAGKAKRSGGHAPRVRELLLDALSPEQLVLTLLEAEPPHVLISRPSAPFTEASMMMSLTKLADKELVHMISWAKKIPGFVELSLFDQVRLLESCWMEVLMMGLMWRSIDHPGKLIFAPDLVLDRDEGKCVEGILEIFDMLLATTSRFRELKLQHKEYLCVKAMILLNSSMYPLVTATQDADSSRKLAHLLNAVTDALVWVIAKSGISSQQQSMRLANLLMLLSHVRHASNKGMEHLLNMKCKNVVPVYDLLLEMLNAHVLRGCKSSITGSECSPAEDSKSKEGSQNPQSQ
# In short: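 qHTS in ER-beta-UAS-bla HEK293T cells: 6 hr settling, then 16 hr compound at 37C, then LiveBLAzer substrate 2 h at RT before fluorescence reading.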
# [16] = molecular target: Estrogen receptor beta (Homo sapiens) (UniProt Q92731); test: qHTS assay to identify small molecule antagonists of the estrogen receptor beta (ER-beta) signaling pathway (AID 1259378; active means well fitted inhibition curve with a large enough effect in the signal ratio in the repeat runs, not every such curve was filed as active; inconclusive means weak or mixed curves, or effect the other way; inactive means no such curve, though single readings can be large or run the other way; the % refers to the signal ratio; further: on the % scale 0 is the no-effect control and ±100 the full control effect); conditions: ER-beta-UAS-bla HEK293T, beta-lactamase FRET ratio, 16 h; activity, negative = inhibition: at 92.4 µM (top of the series) unless noted
# In short: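 ER-beta-UAS-bla HEK293T cells in 2% charcoal-stripped FBS medium treated with compound plus 1nM final 17-beta-estradiol for 16 hr at 37C. Beta-lactamase reporter read by FRET substrate fluorescence after 2 hours at room temperature.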
# [17] = qHTS assay to identify small molecule agonists of H2AX - cell viability counter screen (AID 1224847; calls by dose curve;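 further: wild-type CHO-K1 cells; top concentration of the series differs between compounds; on the % scale 0 is the no-effect control and ±100 the full control effect; nearly all actives have a fitted effect of over 30% in size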)
# In short: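 For this counter screen, overnight-attached CHO-K1 cells received test compounds (15 concentrations, 0.76% DMSO final); 3 hr later at 37C, CellTiter-Glo reagent was added and luminescence recorded after 30 min at room temperature.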
# [18] = qHTS assay to identify small molecule agonists of the estrogen receptor alpha (ER-alpha) signaling pathway in the presence of an antagonist - cell viability counter screen (AID 1259386); further: on the % scale 0 is the no-effect control and ±100 the full control effect; nearly all actives have a fitted effect of over 30% in size
# In short: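 Compounds tested at 15 concentrations for 22 h at 37C alongside 10.0nM (final) ICI-182,780 antagonist, in VM7Luc4E2 cells grown in phenol red-free, charcoal-stripped medium. Viability read by CellTiter-Fluor fluorescence after 1 h reagent incubation.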
# Tags describe the fitted curve by direction and shape or compound fluorescence and quenching.
structure (smiles),measurement,setting,value
NNCc1ccccc1,Potency,[1],active: 2.48 µM
same,Potency,[2],"inconclusive: 56 µM [cytotoxic, partial curve, poor fit]"
same,Potency,[3],"inconclusive: 62.8 µM [cytotoxic, partial curve, poor fit]"
same,Potency,[4],"inconclusive: 69.8 µM [cytotoxic, partial curve, poor fit]"
CCOP(=S)(OCC)Oc1ccc([N+](=O)[O-])cc1,Potency,[5],inactive
same,Potency,[6],"inconclusive: 33.5 µM [activator, partial curve, poor fit]"
CCSC(=O)N1CCCCCC1,Potency,[7],"inconclusive: 5.99 µM [rising, full curve, poor fit]"
same,Potency,[8],"inconclusive: 13.4 µM [cytotoxic, full curve]"
same,Potency,[2],active: 12 µM
same,Potency,[3],"inconclusive: 18.9 µM [cytotoxic, partial curve] and inactive"
same,Potency,[9],"inconclusive: 23.6 µM [rising, single point]"
Clc1cccc(Cl)c1Cl,Potency,[7],inactive
same,activation,[1],inconclusive: -0.55% [phenotype inactive]
same,Potency,[10],inactive
same,Potency,[8],"inconclusive: 21.9 µM [cytotoxic, single point]"
same,Potency,[11],"inconclusive: 21.9 µM [cytotoxic, single point]"
same,Potency,[2],"inconclusive: 21.9 µM [cytotoxic, single point]"
same,Potency,[3],"inconclusive: 21.9 µM [cytotoxic, single point]"
same,Potency,[4],"inconclusive: 13.7 µM [cytotoxic, single point]"
O=c1ccc(=O)[nH][nH]1,Potency,[12],"inconclusive: 14.6 µM [cytotoxic, single point]"
same,Potency,[8],inactive
same,Potency,[11],inactive
same,Potency,[4],"inconclusive: 68 µM [rising, partial curve, poor fit]"
O=C(O)COc1ccccc1,activation,[13],inconclusive: 7.64% [at 95.1 µM]
same,Potency,[14],"inconclusive: 11.3 µM [cytotoxic, single point]"
same,"viability change, negative = cytotoxic",[14],inconclusive: 33.1% [cytotoxic]
same,Potency,[15],"inconclusive: 33.5 µM [falling, single point]"
same,Potency,[6],inactive
CC1(C)C(=O)NC(=O)NC1=O,Potency,[13],"inconclusive: 77 µM [activator, partial curve, poor fit]"
same,Potency,[16],inactive
same,Potency,[9],"inconclusive: 68.6 µM [cytotoxic, single point]"
O=c1[nH]c(=O)n(Cl)c(=O)n1Cl,Potency,[14],inactive
same,"viability change, negative = cytotoxic",[12],inconclusive: -16% [cytotoxic]
same,Potency,[17],inactive
same,Potency,[3],inactive
same,Potency,[18],inactive
same,Potency,[6],"inconclusive: 62.2 µM [activator, partial curve, poor fit]"
